Data published in PubChem BioAssay AID485294 (National Center for Advancing Translational Sciences (NCATS), 2010).
In all, about 370,000 compounds went through this assay and about 150 (0.041%) were called active. This list was built around the results that the source calls inconclusive (neither active nor inactive); the mix of calls is not that of the screen. The call rests on the fitted dose curve; in most records, active means well fitted inhibition curve with a large enough effect; inconclusive means small, poorly fitted or top-dose-only effect; inactive means flat fitted curve, though single readings scatter. Potencies of inconclusive entries are left out as doubtful fits.
Further: nearly all actives have a fitted effect of over 25% in size.
Potency means the concentration at half of the fitted maximal effect; tags describe the fitted curve by direction and shape.

Each compound was assayed against Beta-lactamase (Escherichia coli (strain K12)) (UniProt P00811) (assay: qHTS Inhibitors of AmpC Beta-Lactamase (assay with detergent)). Settings: AmpC hydrolysis of nitrocefin, absorbance 480 nm, 0.01% Triton; series mostly up to 114 µM.
UniProt P00811, sequence (P00811 whole entry, looked up): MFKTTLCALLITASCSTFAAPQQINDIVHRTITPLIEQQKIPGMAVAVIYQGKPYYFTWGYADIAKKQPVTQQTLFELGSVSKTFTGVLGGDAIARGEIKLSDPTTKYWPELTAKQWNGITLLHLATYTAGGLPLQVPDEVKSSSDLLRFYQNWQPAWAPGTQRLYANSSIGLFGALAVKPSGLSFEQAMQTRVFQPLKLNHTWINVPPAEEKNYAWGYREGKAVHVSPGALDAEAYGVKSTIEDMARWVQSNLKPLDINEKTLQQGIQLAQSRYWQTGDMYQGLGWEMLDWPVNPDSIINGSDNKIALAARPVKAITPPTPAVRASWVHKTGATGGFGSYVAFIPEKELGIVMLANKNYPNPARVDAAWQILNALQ
Outline: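 AmpC (5.3 nM in the dispensed reagent) in 20 mM phosphate pH 7.0 with 0.01% (detergent screen) or 0.0001% Triton X-100 was preincubated with compounds for 15 min at room temperature. Nitrocefin was then added from an 800 uM solution, and hydrolysis was followed at 480 nm.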
With `Cc1sc2c(c1C)CN(C(C)(C)C)CN2C(=O)c1ccccc1` the Potency was inconclusive [inhibitor, full curve, poor fit].
With `COc1ccc(S(=O)(=O)N2CCOCC2)cc1NC(=O)CN1CCC(Cc2ccccc2)CC1` the Potency was inconclusive [inhibitor, partial curve, poor fit].
With `NC(=O)CSc1nc2sc3c(c2c2ncnn12)CCCC3` the Potency was inconclusive [inhibitor, partial curve, poor fit].
With `Cc1cc(NC(c2cccnc2)c2c(C)[nH]c3ccccc23)no1` (stereo not drawn) the Potency was inconclusive [inhibitor, full curve, poor fit].
`CC(=O)CSc1nnc(-c2ccc3c(c2)OCO3)o1` was tested, and the Potency was “inactive”.
With `CC(C)CNC(=O)c1cc2nc3c(c(C(F)(F)F)n2n1)CCc1ccccc1-3` the Potency was inconclusive [inhibitor, full curve, poor fit].
In the case of `CC(=O)OCc1c(COC(C)=O)[n+](=O)c2ccccc2n1[O-]`, the Potency was inconclusive [inhibitor, full curve, poor fit].
In the case of `Cc1ccccc1-c1nc(CS(=O)(=O)CC(=O)NC2CCCCC2C)c(C)o1` (stereo not drawn), the Potency was “inactive”.
With `COc1ccc2sc(N(CCCN(C)C)C(=O)c3ccc(S(=O)(=O)N(C)Cc4ccccc4)cc3)nc2c1` the Potency was inconclusive [inhibitor, full curve, poor fit].
`Cc1c(Cl)cccc1NC(=O)CCCN1C(=O)c2cccnc2C1=O` was tested, and the Potency was inconclusive [inhibitor, full curve, poor fit].
For `O=C(Nc1ccccc1N1CCCC1)c1cccc(-c2cc3ccccc3oc2=O)c1`, the Potency was inconclusive [inhibitor, full curve, poor fit].
With `Nc1c(Br)cc(Br)cc1CNC1CCC(O)CC1` (stereo not drawn) the Potency was inconclusive [inhibitor, full curve, poor fit].
For `COc1ccccc1Nc1nc(Cl)nc(Nc2ccccc2OC)n1`, the Potency was inconclusive [inhibitor, single point].
With `Nc1cc(-c2ccncc2)c[nH]c1=O` the Potency was inconclusive [inhibitor, partial curve, poor fit].
In the case of `CCOC(=O)c1cn(CC(=O)Nc2ccc3c(c2)OCCO3)nn1`, the Potency was inconclusive [inhibitor, partial curve, poor fit].
For `O=C(Nc1ccc(Oc2cccnc2)cc1)C1CCN(Cc2ccc(F)cc2)CC1`, the Potency was “inactive”.
In the case of `Cc1ccccc1CN1CCN(CCCc2ccccc2)C(CCO)C1` (stereo not drawn), the Potency was inconclusive [inhibitor, full curve].
For `Cc1c(NC(=O)COC(=O)c2ccc(O)cc2)c(=O)n(-c2ccccc2)n1C`, the Potency was “inactive”.
With `Cc1ccc(C)c(NS(=O)(=O)c2ccc3c(c2)NC(=O)CCS3)c1` the Potency was “inactive”.
With `O=C(NC1CCCCC1)N1CCN(c2ccc([N+](=O)[O-])cc2)CC1` the Potency was inconclusive [inhibitor, full curve].
In the case of `Cc1nc2cc(NC(=O)NCc3ccco3)ccc2o1`, the Potency was “inactive”.
With `CCCN(CCC)c1nc(-c2ccccn2)nc2ccccc12` the Potency was inconclusive [inhibitor, partial curve].
`CC(C)Cn1c(N)c(C(=O)COC(=O)c2ccc([N+](=O)[O-])o2)c(=O)n(C)c1=O` was tested, and the Potency was inconclusive [inhibitor, partial curve].
In the case of `CCCCc1ccc(S(=O)(=O)NCCc2ccncc2)cc1`, the Potency was inconclusive [inhibitor, partial curve, poor fit].
`CCCCNC(=O)Nc1nc2ccccc2s1` was tested, and the Potency was inconclusive [inhibitor, full curve, poor fit].
With `COc1ccc(Cl)cc1C(=O)Nc1ccccc1N1CCCCC1` the Potency was “inactive”.
`Cc1cc(S(=O)(=O)N(Cc2ccc(C(C)C)cc2)CC2CCCO2)ccc1-n1cnnn1` (stereo not drawn) was tested, and the Potency was “inactive”.
For `O=c1c(C=NCc2ccccc2)c(NCc2ccccc2)nc2ccccn12`, the Potency was “inactive”.
For `C[C@H]1CN=C(Nc2ccccc2)N1CCC1CCCC1`, the Potency was inconclusive [inhibitor, full curve, poor fit].
`COc1ccc(C(=O)CSc2nnc(Cn3cnc4ccccc43)o2)cc1` was tested, and the Potency was inconclusive [inhibitor, partial curve, poor fit].
`Cc1cc(C)c2c(CC(=O)O)coc2c1` was tested, and the Potency was inconclusive [inhibitor, partial curve, poor fit].
`COc1cccc(/C=N/N2CCOCC2)c1O` was tested, and the Potency was “inactive”.
In the case of `COc1ccc(-c2noc(CCC(=O)O)n2)cc1`, the Potency was inconclusive [inhibitor, full curve, poor fit].
In the case of `CN1CCN(NC(=O)Nc2cc(Cl)cc(Cl)c2)CC1`, the Potency was inconclusive [inhibitor, full curve].
For `O=C(N/N=C/C1CC=CCC1)c1ccc(O)cc1O` (stereo not drawn), the Potency was inconclusive [inhibitor, full curve, poor fit].
With `Cc1cc(C)c2cc(CN(CCO)C(=O)Nc3ccc(F)cc3)c(=O)[nH]c2c1` the Potency was inconclusive [inhibitor, partial curve].
With `CC(C)c1ccc(S(=O)(=O)N2CCN(C(=O)CCNS(=O)(=O)c3ccccc3F)CC2)cc1` the Potency was inconclusive [inhibitor, partial curve, poor fit].
For `COc1ccc(Oc2cc(NN3CCCCC3)c([N+](=O)[O-])cc2[N+](=O)[O-])cc1OC`, the Potency was inconclusive [inhibitor, full curve, poor fit].
`Brc1cc2c(cc1Br)OCCOCCOCCOCCO2` was tested, and the Potency was “inactive”.
For `Cc1ccc(C)c2nc(SCC(=O)NCc3cccs3)c(C#N)cc12`, the Potency was inconclusive [inhibitor, partial curve, poor fit].
For `CC(C)c1ccc(/C=C2\SC(N3CCCC3)=NC2=O)cc1`, the Potency was inconclusive [inhibitor, full curve].
With `COc1ccc(N2CCN(c3nc4ccc(C(=O)c5ccccc5)cc4n4cnnc34)CC2)cc1` the Potency was “inactive”.
In the case of `O=C(O)CCn1cc(/C=C2/NC(=S)N(c3ccccc3)C2=O)c(-c2ccccc2)n1`, the Potency was inconclusive [inhibitor, full curve, poor fit].
